Where “and” joins values, the source holds several entries; their conditions need not be identical. Equal entries are not always repeated. The inconclusive results got no clear call from the source; some entries with a clear call stand among them for comparison. Potencies of inconclusive entries are doubtful fits and often do not repeat. Calls of active or inactive are those of the source. Calls come from the whole dose curve; as a rule, active = well fitted curve in the direction sought with a large enough effect; inconclusive = small, poorly fitted or top-dose-only effect, or another doubt; inactive = no such curve, though single readings can be large; an effect the other way counts as inactive or inconclusive.
What was measured:
HEK293 = assay: Cytotoxic Profiling of Annotated Libraries Using Quantitative High-Throughput Screening (AID 1296008); settings: Five cell lines viability, CellTiter-Glo ATP luminescence, 48-72 h; max response: active compounds read low; note: nearly all actives have a fitted effect of over 60% in size; for max response: % is set by controls: 0 for no effect and ±100 for the full control effect
Procedure, shortened: (§1)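 Cytotoxicity was measured as CellTiter-Glo ATP luminescence, read after 10 min at room temperature. Compound treatment of the cells lasted 48 or 72 hr at 37 degrees Celsius in a qHTS format.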

NIH3T3 = assay: as above; settings: Five cell lines viability, CellTiter-Glo ATP luminescence, 48-72 h; max response: active compounds read low
Procedure, shortened: as §1

MCC-13 = assay: qHTS assay to identify novel small-molecules to repurpose for Merkel cell carcinoma treatment (AID 1296009); settings: MCC and control cell lines, CellTiter-Glo viability, 72 h; series mostly up to 46 µM; note: nearly all actives have a fitted effect of over 60% in size; for activity change, negative = cytotoxicity: % is set by controls: 0 for no effect and ±100 for the full control effect
Procedure, shortened: (§2)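 72 hr, 37 degree celsius; NPC 8-pt / MIPE 11-pt dose response; compound pinned in DMSO; CellTiter-Glo, 10 min RT, luminescence; normalized to no-cell and DMSO controls.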

MKL-2 = assay: as above; settings: MCC and control cell lines, CellTiter-Glo viability, 72 h; series mostly up to 46 µM
Procedure, shortened: as §2

UISO = assay: as above; settings: MCC and control cell lines, CellTiter-Glo viability, 72 h; series mostly up to 46 µM
Procedure, shortened: as §2

WaGa = assay: as above; settings: MCC and control cell lines, CellTiter-Glo viability, 72 h; series mostly up to 46 µM
Procedure, shortened: as §2

MCC-26 = assay: as above; settings: MCC and control cell lines, CellTiter-Glo viability, 72 h; series mostly up to 46 µM
Procedure, shortened: as §2

MKL-1 = assay: as above; settings: MCC and control cell lines, CellTiter-Glo viability, 72 h; series mostly up to 46 µM
Procedure, shortened: as §2

CAOV3 = assay: Primary qHTS to identify gynecologic anti-cancer compounds using libraries of approved drugs and bioactive compounds (AID 1345084); settings: Gynecologic cancer cell panel viability, ATPlite luminescence, 48 h; series mostly up to 57.5 µM; note: nearly all actives have a fitted effect of over 55% in size; for activity change, negative = cytotoxicity: % is set by controls: 0 for no effect and ±100 for the full control effect
Procedure, shortened: (§3)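 Cells, 1,000 per well, plated 16 h, then exposed 48 h at 37 C to compounds. Viability by ATPlite luminescence after 15 min at room temperature.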

CASKI = assay: as above; settings: Gynecologic cancer cell panel viability, ATPlite luminescence, 48 h; activity change, negative = cytotoxicity: at 57.5 µM (top of the series)
Procedure, shortened: as §3

HeLa = assay: as above; settings: Gynecologic cancer cell panel viability, ATPlite luminescence, 48 h; series mostly up to 57.5 µM
Procedure, shortened: as §3

[1] = qHTS assay to identify inhibitors of the type 1 interferon - major histocompatibility complex class I in skeletal muscle: Counter screen cell viability and HiBit confirmation (AID 1347412); settings: iHSKM muscle cells + IFN-b, HiBiT or CellTiter-Glo, 24 h; Viability; note: nearly all actives have a fitted effect of over 60% in size
Procedure, shortened: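 Human myoblast knock-in line, 4.0 ng/ml IFN-beta stimulation, 24 h compound treatment. Endpoints: HiBiT lytic luminescence (HLA-B level) and CellTiter Glo (ATP). Dosing 12 concentrations, 3-fold steps, 46 uM highest final.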

C33A = assay: Primary qHTS to identify gynecologic anti-cancer compounds using libraries of approved drugs and bioactive compounds (AID 1345084); settings: Gynecologic cancer cell panel viability, ATPlite luminescence, 48 h; series mostly up to 57.5 µM; note: nearly all actives have a fitted effect of over 55% in size
Procedure, shortened: as §3

Es-2 = assay: as above; settings: Gynecologic cancer cell panel viability, ATPlite luminescence, 48 h; series mostly up to 57.5 µM
Procedure, shortened: as §3

KB-3-1 = assay: Cytotoxic Profiling of Annotated Libraries Using Quantitative High-Throughput Screening (AID 1296008); settings: Five cell lines viability, CellTiter-Glo ATP luminescence, 48-72 h; max response: active compounds read low; note: nearly all actives have a fitted effect of over 60% in size; for max response: % is set by controls: 0 for no effect and ±100 for the full control effect
Procedure, shortened: as §1

W2 = assay: qHTS profiling for inhibitors of Plasmodium falciparum proliferation (AID 504749); note: nearly all actives have a fitted effect of over 60% in size; settings: P. falciparum in erythrocytes, SYBR Green DNA, 72 h; series mostly up to 28.7 µM
Procedure, shortened: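 Infected RBCs, 0.3% parasitemia/2.5% Hct final; cpd 72 h, 37 C, 5% CO2; lysis buffer with saponin/triton/SYBR Green I, o/n RT dark; FI 485/535; norm. to artemisinin (0.29 uM) and DMSO.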

[2] = Drug repurposing screens with cells derived from glioblastoma tumor samples (AID 1345199); settings: GBM patient neurospheres viability, ATP luminescence, 48 h; Potency: tumour line A unless noted; activity, negative = cell killing: at 46 µM (top of the series), tumour line A unless noted; note: nearly all actives have a fitted effect of over 40% in size
Procedure, shortened: (§4)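 Four patient lines of CD133+ GBM neurospheres were screened at several concentrations; hits were retested in those lines plus three slower-growing GBM lines, using 48-hour treatment and ATP-based viability.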

astro = assay: as above; settings: viability, ATP luminescence, 48 h; activity, negative = cell killing: at 45.9 µM (top of the series)
Procedure, shortened: as §4
Potency is the fitted concentration of half-maximal effect; tags give direction and shape of the fitted curve.

SMILES: CCc1cnn2c(NCc3ccc[n+]([O-])c3)cc(N3CCCC[C@@H]3CCO)nc12
- Potency (HEK293): active: 0.0332 µM
- Potency (NIH3T3): active: 0.105 µM
- Potency (MCC-13): inconclusive: 0.187 µM [inhibitor, full curve]
- Potency (MKL-2): active: 0.0418 µM
- Potency (UISO): active: 0.0935 µM
- Potency (WaGa): inconclusive: 0.0264 µM [inhibitor, full curve]

SMILES: O=C1Nc2ccc(I)cc2C1=Cc1cc(Br)c(O)c(Br)c1
- Potency (HEK293): inconclusive: 37.2 µM [inhibitor, single point]
- max response (NIH3T3): inactive: -9.84%
- Potency (MCC-26): inactive
- Potency (UISO): inconclusive: 20.9 µM [inhibitor, single point]

SMILES: OCc1ccccc1O[C@@H]1O[C@H](CO)[C@H](O)[C@H](O)[C@H]1O
- Potency (HEK293): inconclusive: 37.2 µM [inhibitor, single point]
- Potency (MCC-13): inactive
- Potency (MKL-1): inactive
- Potency (MKL-2): inactive

SMILES: CCc1cccc(CC)c1NC(=O)N1Cc2[nH]nc(NC(=O)c3ccc(N4CCN(C)CC4)cc3)c2C1
- Potency (HEK293): inconclusive: 23.5 µM [inhibitor, partial curve, poor fit]
- Potency (NIH3T3): active: 13.2 µM
- Potency (MCC-13): inactive
- Potency (MKL-1): inconclusive: 0.833 µM [inhibitor, full curve]
- Potency (WaGa): inconclusive: 1.18 µM [inhibitor, full curve]
- Potency (CAOV3): inconclusive: 3.98 µM [cytotoxic, partial curve, poor fit]
- Potency (CASKI): inconclusive: 11.2 µM [cytotoxic, partial curve, poor fit]
- Potency (HeLa): active: 3.16 µM

SMILES: CN(C)CCOc1ccc(-c2nc(-c3ccc4c(c3)CCC4=NO)c(-c3ccncc3)[nH]2)cc1
- Potency (HEK293): inconclusive: 37.2 µM [inhibitor, single point]
- Potency (MKL-1): inconclusive: 26.4 µM [inhibitor, single point]
- Potency (MKL-2): active: 14.8 µM
- Potency (WaGa): inconclusive: 23.5 µM [inhibitor, single point]

SMILES: O=C(CCCN1CCC(O)(c2cccc(C(F)(F)F)c2)CC1)c1ccc(F)cc1
- Potency (HEK293): inconclusive: 33.5 µM [inhibitor, single point]
- Potency (NIH3T3): inconclusive: 23.7 µM [inhibitor, partial curve, poor fit]
- Potency (MKL-2): inconclusive: 18.8 µM [inhibitor, partial curve]

SMILES: CC(C=CC=C(C)C=CC1=C(C)CCCC1(C)C)=CC=CC=C(C)C=CC=C(C)C=CC1=C(C)CCCC1(C)C
- max response (HEK293): inactive: -0.757%
- max response (NIH3T3): inactive: -4.98%
- Potency (MKL-1): inactive
- Potency (MKL-2): inconclusive: 18.7 µM [inhibitor, partial curve, poor fit]
- Potency (WaGa): inconclusive: 23.5 µM [inhibitor, single point]

SMILES: CNC(=O)c1ccccc1Nc1nc(Nc2ccc(N3CCOCC3)cc2OC)ncc1Cl
- Potency (HEK293): active: 3.32 µM
- Potency (NIH3T3): active: 1.05 µM
- Potency (MCC-13): inconclusive: 14.8 µM [inhibitor, partial curve]
- Potency (MCC-26): inconclusive: 11.8 µM [inhibitor, partial curve]
- Potency (MKL-1): inconclusive: 6.62 µM [inhibitor, full curve]
- Potency (WaGa): inconclusive: 4.18 µM [inhibitor, partial curve]
- Potency [1]: inconclusive: 1.98 µM [cytotoxic, full curve]
- Potency (C33A): inconclusive: 39.8 µM [cytotoxic, single point]
- Potency (CAOV3): inconclusive: 5.62 µM [cytotoxic, full curve, poor fit]
- Potency (CASKI): active: 10 µM
- Potency (Es-2): inconclusive: 39.8 µM [cytotoxic, single point]

SMILES: CCN(CC)CCCN(c1ccccc1)C1Cc2ccccc2C1
- Potency (HEK293): inconclusive: 26.6 µM [inhibitor, single point]
- Potency (KB-3-1): inconclusive: 20.6 µM [inhibitor, single point]
- Potency (MKL-1): inactive
- Potency (WaGa): inconclusive: 18.8 µM [inhibitor, single point]
- Potency (C33A): inconclusive: 12.6 µM [cytotoxic, partial curve, poor fit]
- Potency (CAOV3): inconclusive: 25.1 µM [cytotoxic, single point]

SMILES: CC(=O)c1ccc2c(c1)N(CCCN1CCC(CCO)CC1)c1ccccc1S2
- Potency (W2): active: 1.02 µM
- Potency (HEK293): inconclusive: 33.5 µM [inhibitor, single point]
- Potency (NIH3T3): inconclusive: 29.9 µM [inhibitor, partial curve, poor fit]
- Potency (MKL-1): inactive
- Potency (UISO): inconclusive: 15 µM [inhibitor, single point]
- Potency [2]: active: 11.2 µM
- Potency (astro): inconclusive: 14.1 µM [inhibitor, partial curve]
- Potency (CAOV3): inconclusive: 39.8 µM [cytotoxic, single point]
- Potency (CASKI): inconclusive: 39.8 µM [cytotoxic, single point]

SMILES: C[C@]12C[C@H](O)[C@H]3[C@@H](CCC4=CC(=O)CC[C@@]43C)[C@@H]1CC[C@@H]2C(=O)CO
- outcome (HEK293): inactive
- Potency (NIH3T3): inconclusive: 33.5 µM [inhibitor, single point]
- Potency (CAOV3): inactive

SMILES: CC(=O)O[C@]1(C(C)=O)CC[C@H]2[C@@H]3C[C@H](C)C4=CC(=O)CC[C@]4(C)[C@H]3CC[C@@]21C
- Potency (HEK293): inconclusive: 18.4 µM [inhibitor, single point]
- Potency (MKL-1): inactive
- Potency (C33A): inconclusive: 35.5 µM [cytotoxic, single point]
- Potency (Es-2): inconclusive: 35.5 µM [cytotoxic, single point]
- Potency (HeLa): inconclusive: 20 µM [cytotoxic, partial curve]

SMILES: CO[C@@H]1[C@@H](O)[C@H](O)[C@@H](n2c3c(Cl)cccc3c3c4c(c5c6cccc(Cl)c6[nH]c5c32)C(=O)NC4=O)O[C@@H]1CO
- Potency (HEK293): active: 0.662 µM
- Potency (NIH3T3): active: 1.66 µM
- Potency (MKL-2): active: 0.935 µM
- Potency (WaGa): active: 0.166 µM

SMILES: COc1ccc(-c2cc(C(F)F)nn2-c2ccc(S(N)(=O)=O)cc2)cc1F
- Potency (W2): inactive
- Potency (HEK293): inconclusive: 23.7 µM [inhibitor, single point]
- Potency (MCC-26): inactive
- Potency (CASKI): inactive

SMILES: CN(C)CCOc1ccccc1Cc1ccccc1
- max response (HEK293): inactive: -12.7%
- Potency (MKL-1): inactive
- Potency [2]: inconclusive: 0.562 µM [inhibitor, full curve, poor fit]

SMILES: Cc1ccc(O)c2ncccc12
- Potency (W2): inconclusive: 19 µM [inhibitor, single point]
- Potency (HEK293): inconclusive: 33.5 µM [inhibitor, single point]
- Potency (MCC-13): inconclusive: 21.1 µM [inhibitor, single point]
- Potency (MCC-26): inconclusive: 16.8 µM [inhibitor, single point]
- Potency (UISO): active: 11.9 µM
- Potency (WaGa): inconclusive: 23.7 µM [inhibitor, single point]

SMILES: CC(N[C@H]1CCCC[C@H]1NC(=O)c1ccc(Cl)cc1)c1cccc2ccccc12 (some centres undefined)
- Potency (HEK293): inconclusive: 37.2 µM [inhibitor, single point]
- Potency (MCC-26): inactive
- Potency (MKL-1): inconclusive: 2.64 µM [inhibitor, full curve]
- Potency (WaGa): inconclusive: 6.62 µM [inhibitor, partial curve]

SMILES: CNC(=O)c1ccc(N2C(=S)N(c3cnc(C#N)c(C(F)(F)F)c3)C(=O)C23CCC3)cc1F
- Potency (HEK293): inconclusive: 5.8 µM [inhibitor, full curve, poor fit]
- max response (NIH3T3): inactive: 0.376%
- outcome (NIH3T3): inactive
- Potency (MCC-13): inconclusive: 37.2 µM [inhibitor, single point]
- Potency (MCC-26): inconclusive: 29.6 µM [inhibitor, single point]
- Potency (MKL-1): inconclusive: 29.6 µM [inhibitor, single point]
- Potency (UISO): inconclusive: 37.2 µM [inhibitor, single point]
- Potency (WaGa): active: 9.35 µM

SMILES: C=C1C[C@H]2[C@@H]3C=C(C)C4=CC(=O)CC[C@]4(C)[C@H]3CC[C@]2(C)[C@@]1(OC(C)=O)C(C)=O
- Potency (HEK293): inconclusive: 33.5 µM [inhibitor, single point]
- Potency (MKL-2): inconclusive: 2.11 µM [inhibitor, partial curve, poor fit]
- Potency (WaGa): inconclusive: 18.8 µM [inhibitor, single point]

SMILES: CC1(CN2CCC(n3c(=O)[nH]c4ccccc43)CC2)OCc2ccccc2-n2cccc21 (centres undefined)
- Potency (W2): active: 7.57 µM
- Potency (HEK293): inconclusive: 14.8 µM [inhibitor, partial curve, poor fit] and inconclusive: 23.7 µM [inhibitor, single point]
- Potency (MKL-2): inactive
- Potency (UISO): inconclusive: 33.5 µM [inhibitor, single point]
- Potency (WaGa): inconclusive: 33.5 µM [inhibitor, single point]
- Potency (astro): inconclusive: 31.6 µM [inhibitor, partial curve]
- Potency (C33A): inactive

SMILES: CC(C)=CCC1C(=O)N(c2ccccc2)N(c2ccccc2)C1=O
- Potency (W2): inconclusive: 13.5 µM [inhibitor, partial curve]
- Potency (HEK293): inconclusive: 33.5 µM [inhibitor, partial curve, poor fit]
- Potency (MKL-1): inconclusive: 21.1 µM [inhibitor, single point]
- Potency (UISO): inconclusive: 21.1 µM [inhibitor, partial curve, poor fit]
- Potency (WaGa): inconclusive: 26.6 µM [inhibitor, single point]
- Potency (astro): inactive
- Potency (CAOV3): inconclusive: 1 µM [cytotoxic, full curve, poor fit]

— PubChem BioAssay (NCATS)
